For 197 sequences, binding signal results are on record in PMC12135187, “A role for pH dynamics regulating transcription factor DNA-binding selectivity”.

The other results are listed elsewhere or left out.

In the assay the target is T1, FOXC2 DBD WT (UniProt Q99958 72-172).
T1 sequence: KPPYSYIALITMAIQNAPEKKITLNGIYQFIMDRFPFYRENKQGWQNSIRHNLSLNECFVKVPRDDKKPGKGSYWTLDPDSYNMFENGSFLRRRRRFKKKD
The assay is described as follows: SELEX-seq (GST pull-down, four rounds, 16-nt random library); pH 7.0; 20 mM HEPES, 140 mM KCl, 0.05 mM TCEP-HCl, pH 7.0, room temperature, 30 min; 2.5 uM GST-FOXC2 DBD, 0.25 uM DNA library; high values mean tight binding. The settings on record: protein: recombinant; tags: N-terminal GST (pGEX-6P-2); dsDNA, one strand shown. The gist of the method: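 GST-tagged FOXC2 DNA-binding domain (E. coli-expressed, glutathione-purified) was incubated with a DNA library carrying a 16 bp randomized region, at 0.25 μM DNA and 2.5 μM protein, for 30 min at RT in 20 mM HEPES, 140 mM KCl, 0.05 mM TCEP–HCl, pH 7. Complexes were captured on glutathione Sepharose beads, washed, heat-eluted and PCR-amplified over four rounds. Initial and selected libraries were Illumina MiniSeq sequenced. Relative enrichment came from the Bioconductor SELEX R package.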
For the sequence CCAGTT, the binding signal turned out to be 0.378 relative enrichment.
As to AAATTC, the binding signal stood at 0.343 relative enrichment.
Turning to ACATAT, the binding signal came to 0.476 relative enrichment.
As for GTCTAA, the figure is 0.372 relative enrichment; as for ACGTAA, 0.385 relative enrichment.
As for AAACGG, the figure is 0.363 relative enrichment; as for TCTGAT, 0.388 relative enrichment.
As for TATTAA, the figure is 0.302 relative enrichment; as for AACTCT, 0.274 relative enrichment.
Regarding AACTTG, the binding signal came to 0.349 relative enrichment.
For ATATAA, the binding signal turned out to be 0.218 relative enrichment.
In the case of TCTATC, the binding signal is 0.361 relative enrichment.
For ACGTCA, the binding signal was determined as 0.506 relative enrichment.
As for TCCTTG, the figure is 0.369 relative enrichment; as for GCATTA, 0.334 relative enrichment; as for ACAGAG, 0.418 relative enrichment.
As for ACTAAT, the figure is 0.328 relative enrichment.
Regarding AATGCT, the binding signal amounted to 0.3 relative enrichment.
As for AATCGA, the figure is 0.377 relative enrichment; as for CAATCA, 0.4 relative enrichment; as for ATATGC, 0.286 relative enrichment.
On to CTAAAG, for which the binding signal worked out at 0.401 relative enrichment.
As for TATGAA, the figure is 0.387 relative enrichment.
For ACCATA, the binding signal came out at 0.358 relative enrichment.
As for AAAGAA, the figure is 0.336 relative enrichment; as for TTACCC, 0.469 relative enrichment.
Take ACTCTC: the binding signal was found to be 0.499 relative enrichment.
As for TCCAAA, the figure is 0.348 relative enrichment.
Take TCACTG: the binding signal came out at 0.414 relative enrichment.
As for AGAACA, the figure is 0.241 relative enrichment; as for AACTGT, 0.213 relative enrichment; as for CTCTTG, 0.394 relative enrichment.
As for ATCGGT, the figure is 0.436 relative enrichment; as for ACGACA, 0.264 relative enrichment; as for ACTTTA, 0.273 relative enrichment.
As for AAAATA, the figure is 0.439 relative enrichment; as for ATATAC, 0.28 relative enrichment.
On to CCTTAA, for which the binding signal was 0.358 relative enrichment.
As for ATTAAG, the figure is 0.403 relative enrichment.
Regarding ACCACT, the binding signal was found to be 0.588 relative enrichment.
As for CCGATT, the figure is 0.357 relative enrichment; as for AGCTAT, 0.288 relative enrichment; as for ACTCTA, 0.386 relative enrichment.
Turning to ACTGAT, the binding signal amounted to 0.368 relative enrichment.
As for AGACAA, the figure is 0.271 relative enrichment; as for AGCCTA, 0.371 relative enrichment; as for GTGTCA, 0.372 relative enrichment.
Take ATAGCG: the binding signal is 0.407 relative enrichment.
As for TATTGA, the figure is 0.511 relative enrichment.
As for CATAGC, the figure is 0.422 relative enrichment; as for CATAAG, 0.406 relative enrichment; as for ACGAAT, 0.379 relative enrichment.
With CAAAAC, the binding signal is 0.33 relative enrichment.
As for ACCTAA, the binding signal stood at 0.327 relative enrichment.
Turning to ATTTAA, the binding signal worked out at 0.337 relative enrichment.
As for ATACTA, the figure is 0.334 relative enrichment.
As for ACTACT, the figure is 0.459 relative enrichment.
As for AAGTGT, the figure is 0.298 relative enrichment; as for CTTATC, 0.378 relative enrichment; as for CAATGC, 0.376 relative enrichment.
Consider ACAGCC, for which the binding signal was found to be 0.39 relative enrichment.
With ATTTCG, the binding signal was determined as 0.454 relative enrichment.
As for AATTAG, the figure is 0.241 relative enrichment; as for CCCTAT, 0.389 relative enrichment; as for AATTCA, 0.336 relative enrichment.
As for AATCTG, the figure is 0.283 relative enrichment.
As for GTAAAC, the figure is 0.561 relative enrichment.
CCCTTT: the binding signal came out at 0.402 relative enrichment.
Take CGTTCT: the binding signal was 0.485 relative enrichment.
As for CCGTTG, the figure is 0.343 relative enrichment; as for CAGCAA, 0.292 relative enrichment.
As for TACACA, the binding signal worked out at 0.394 relative enrichment.
As for AAGCAA, the figure is 0.496 relative enrichment.
Regarding TCGCTT, the binding signal is 0.407 relative enrichment.
As for GCCATA, the figure is 0.387 relative enrichment; as for TAACCA, 0.353 relative enrichment.
As for CAATAG, the figure is 0.291 relative enrichment; as for AATTGC, 0.3 relative enrichment; as for AACCTG, 0.314 relative enrichment.
As for TAAGTA, the figure is 0.459 relative enrichment; as for CAAAAA, 0.267 relative enrichment; as for AAGAAT, 0.372 relative enrichment.
TTCCAT: the binding signal worked out at 0.426 relative enrichment.
As for GGCAAA, the figure is 0.313 relative enrichment.
As for TAGCCT, the figure is 0.397 relative enrichment.
As for TTCCTA, the figure is 0.364 relative enrichment; as for CGAAAA, 0.303 relative enrichment; as for ATTTTG, 0.27 relative enrichment.
For the sequence ACGCAA, the binding signal stood at 0.314 relative enrichment.
As for ACTACA, the figure is 0.297 relative enrichment.
As for AATGAA, the figure is 0.36 relative enrichment; as for ACTCAG, 0.492 relative enrichment.
As for ATTTTA, the figure is 0.263 relative enrichment; as for CCCATA, 0.344 relative enrichment.
With ATATGG, the binding signal was found to be 0.339 relative enrichment.
As for ATCAAG, the figure is 0.369 relative enrichment; as for AAGAAA, 0.396 relative enrichment.
As for CACCTA, the figure is 0.417 relative enrichment; as for AAGCAC, 0.477 relative enrichment; as for CAATTG, 0.24 relative enrichment.
As for AAAGCA, the figure is 0.341 relative enrichment; as for GTACTA, 0.465 relative enrichment; as for ATCATA, 0.38 relative enrichment.
Regarding ACACAG, the binding signal was 0.297 relative enrichment.
As for CTCCAT, the figure is 0.483 relative enrichment; as for ACTTTC, 0.481 relative enrichment.
In the case of AGGATA, the binding signal was 0.311 relative enrichment.
As for ATAATC, the figure is 0.482 relative enrichment.
As for ACTTCT, the figure is 0.502 relative enrichment; as for TTCCTT, 0.344 relative enrichment.
CTCTTA: the binding signal turned out to be 0.325 relative enrichment.
As for TACTCA, the figure is 0.389 relative enrichment; as for AAATGC, 0.33 relative enrichment.
Turning to TCCTAA, the binding signal worked out at 0.348 relative enrichment.
As for CACATG, the figure is 0.281 relative enrichment.
For TACCGT, the binding signal was found to be 0.442 relative enrichment.
CTATAA: the binding signal is 0.283 relative enrichment.
As for GATTAA, the figure is 0.448 relative enrichment; as for CATGTC, 0.418 relative enrichment; as for AACGCC, 0.493 relative enrichment.
As for ACTTAG, the figure is 0.415 relative enrichment; as for GGTATA, 0.303 relative enrichment; as for TCACAA, 0.332 relative enrichment.
As for CTATCT, the figure is 0.402 relative enrichment; as for CCGTAA, 0.415 relative enrichment.
As for ATCATC, the binding signal was 0.492 relative enrichment.
As for TTTCTC, the binding signal is 0.368 relative enrichment.
As for AATTTC, the figure is 0.416 relative enrichment.
As for AACAAC, the figure is 0.24 relative enrichment; as for TAATAA, 0.399 relative enrichment.
As for TGTCCA, the figure is 0.348 relative enrichment; as for AGAATG, 0.543 relative enrichment.
As to CGTGTA, the binding signal came to 0.412 relative enrichment.
As for TATAGA, the figure is 0.295 relative enrichment; as for ACAGGA, 0.332 relative enrichment; as for GATTAC, 0.363 relative enrichment.
As for AACGGA, the figure is 0.309 relative enrichment; as for ATGCAT, 0.421 relative enrichment.
As for TAACCC, the figure is 0.318 relative enrichment; as for CAAATC, 0.3 relative enrichment; as for TAAAAA, 0.261 relative enrichment.
AAATCC: the binding signal stood at 0.354 relative enrichment.
As for ACAAAT, the binding signal worked out at 0.442 relative enrichment.
As for AAATGA, the figure is 0.271 relative enrichment; as for ATTATC, 0.317 relative enrichment; as for CTAAAC, 0.375 relative enrichment.
As for AACTAT, the figure is 0.324 relative enrichment.
On to GTTTTA, for which the binding signal turned out to be 0.241 relative enrichment.
Take AAATAA: the binding signal is 0.891 relative enrichment.
As for CATCCT, the figure is 0.605 relative enrichment; as for CCATCA, 0.645 relative enrichment.
As for TGATCA, the figure is 0.457 relative enrichment.
As for TTCCTG, the figure is 0.394 relative enrichment; as for AACGTC, 0.372 relative enrichment.
Consider TAGACA, for which the binding signal was found to be 0.44 relative enrichment.
As for CAAACG, the binding signal worked out at 0.325 relative enrichment.
As for ACGTCT, the figure is 0.549 relative enrichment.
Take ATTGCA: the binding signal came to 0.322 relative enrichment.
As for CAATTA, the figure is 0.295 relative enrichment; as for CTTAAG, 0.341 relative enrichment; as for AAACCA, 0.353 relative enrichment.
Regarding CCCAAA, the binding signal is 0.472 relative enrichment.
As for AATCTC, the figure is 0.43 relative enrichment.
With GATGCT, the binding signal came to 0.63 relative enrichment.
As for CGTAAA, the figure is 0.481 relative enrichment; as for AATAAA, 0.839 relative enrichment.
As for ATAGAC, the figure is 0.461 relative enrichment; as for AACAGT, 0.313 relative enrichment; as for CCTATG, 0.396 relative enrichment.
As for GATTGC, the figure is 0.423 relative enrichment; as for AACGTA, 0.337 relative enrichment; as for CCAACT, 0.341 relative enrichment.
CTACAA: the binding signal stood at 0.352 relative enrichment.
As for CCTACT, the figure is 0.648 relative enrichment; as for ATACCC, 0.549 relative enrichment.
As for CTTAGA, the figure is 0.52 relative enrichment; as for GATTTA, 0.323 relative enrichment.
As for ACTCCA, the figure is 0.477 relative enrichment.
Regarding AGCATG, the binding signal was 0.514 relative enrichment.
As for AGATAT, the figure is 0.386 relative enrichment; as for CTATGA, 0.45 relative enrichment; as for AAAAGA, 0.251 relative enrichment.
As to CTTCTT, the binding signal came out at 0.546 relative enrichment.
As for ATATCC, the figure is 0.317 relative enrichment.
As for ATCCTA, the figure is 0.563 relative enrichment; as for ACATAG, 0.364 relative enrichment.
As for GTCATA, the figure is 0.306 relative enrichment; as for ACAATA, 0.351 relative enrichment; as for CCATAA, 0.412 relative enrichment.
Regarding TAGTCA, the binding signal was 0.442 relative enrichment.
As for ATTAGA, the figure is 0.372 relative enrichment; as for AAAACA, 0.264 relative enrichment.
As for TACCAA, the figure is 0.41 relative enrichment; as for ATGTGA, 0.334 relative enrichment; as for GCAAAA, 0.207 relative enrichment.
As for ATGTAA, the figure is 0.258 relative enrichment; as for ATGTTA, 0.428 relative enrichment.
